# Data as given in PubChem BioAssay AID588855 (National Center for Advancing Translational Sciences (NCATS), 2011).
# Hit rate of the full screen: of about 410,000 compounds, about 5,000 (1.2%) were called active. Inconclusive results, whose numbers are uncertain, are shown with a selection of clear calls. Calls follow the shape of the dose curve; as a rule, active = well fitted inhibition curve with a large enough effect; inconclusive = small, poorly fitted or top-dose-only effect; inactive = no such curve, though single readings can be large or run the other way. A potency beside an inconclusive call is a rough fit, not a confirmed value.
# Assay: qHTS for Inhibitors of TGF-b; also: nearly all actives have a fitted effect of over 65% in size
# Settings: HepG2 CAGA-GFP TGF-b/SMAD3 reporter, GFP fluorescence, 18 h, TGF-beta stimulated, 500 pg/mL final; series mostly up to 46.1 µM; activity, negative = inhibition: at the top concentration
# Summary of the method: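 Inhibition was scored as loss of TGF-beta-induced (500 pg/mL final, 18 hours, 37 degrees C) GFP in HEPG2 cells carrying a CAGA-GFP reporter, in DMEM with 1% FBS. Well GFP was summed per cell; Activity was normalised to unstimulated and stimulated DMSO wells, then concentration-response fitting.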
# % is scaled to controls: 0 for no effect and ±100 for the full control effect; potency is read from the fitted curve at half-maximal effect; tags tell the direction and shape of the fitted curve.
Structure (SMILES),Potency,"activity, negative = inhibition"
CC(C)(C)n1nnnc1C(CCc1ccccc1)N1CCN(C/C=C/c2ccccc2)CC1 (configuration not stated),"inconclusive: 28.2 µM [inhibitor, single point]",
CC(=O)N1CC(C)Sc2ccc(S(=O)(=O)NCCc3cccc(C)c3)cc21 (configuration not stated),"inconclusive: 14.1 µM [inhibitor, single point]",
CC(=O)Nc1ccc(S(=O)(=O)N(Cc2ccccc2)C(C)C)cc1,,inactive: -6.84%
COc1cccc(NC(=O)c2ccc(N3C(=O)C4CC=CCC4C3=O)cc2)c1 (configuration not stated),,inactive: -11%
COc1ccc(OC)c(NC(=O)Cc2coc3ccc(C(C)C)cc23)c1,"inconclusive: 35.5 µM [inhibitor, single point]",
Cc1cc(C)c2nc(-c3ccncc3)cc(C(=O)N3CCN(Cc4ccccc4Cl)CC3)c2c1,"inconclusive: 12.6 µM [inhibitor, partial curve, poor fit]",
CCN(CC)c1ccc(NC(=O)c2ccco2)c(C)c1,,inactive: 0.789%
COC(=O)c1c(C)oc2ccc(N(C(=O)c3ccncc3)S(=O)(=O)c3ccc(C)cc3C)cc12,"inconclusive: 14.1 µM [inhibitor, partial curve, poor fit]",
O=C(Nc1ccc(Cl)cc1)Nc1nnc(CSCc2ccc(Cl)cc2)s1,"inconclusive: 6.31 µM [inhibitor, partial curve, poor fit]",
CNc1nc(NCc2ccccc2)c2sccc2n1,"inconclusive: 22.4 µM [inhibitor, partial curve, poor fit]",
N#C/C(=C\c1ccncc1)c1nc2ccccc2o1,"inconclusive: 35.5 µM [inhibitor, single point]",
CC(=O)N1CCOc2cc(S(=O)(=O)Nc3cccc(C(F)(F)F)c3)c(Cl)cc21,"inconclusive: 12.6 µM [inhibitor, partial curve]",
O=C(Nc1ccccc1N1CCOCC1)C1(c2ccc(Cl)cc2)CCC1,"inconclusive: 22.4 µM [inhibitor, single point]",
CCc1cccc(-n2c(C)nc3c(cnn3-c3ccc(Cl)cc3)c2=O)c1,"inconclusive: 5.62 µM [inhibitor, full curve, poor fit]",
Cc1ccc(-n2c(SCC(=O)N/N=C/c3c(C)nn(-c4ccccc4)c3C)nc3ccccc3c2=O)cc1,"inconclusive: 1.41 µM [inhibitor, partial curve, poor fit]",
N#Cc1ccc(COC(=O)c2ccc(N3CCCC3)c([N+](=O)[O-])c2)cc1,"inconclusive: 35.5 µM [inhibitor, single point]",
CC(C)CC(N)c1csc(NC(=O)C(c2ccccc2)c2ccccc2)n1 (configuration not stated),"inconclusive: 35.5 µM [inhibitor, single point]",
COc1cccc(/C(O)=C2\C(=O)C(=O)N(c3ccccn3)C2c2cccc(OC)c2OC)c1 (configuration not stated),,inactive: 7.23%
O=C1Nc2cccnc2N(C(=O)CCl)c2ccccc21,"inconclusive: 35.5 µM [inhibitor, single point]",
CC(C)N1CCc2c(sc(NC(=O)c3ccc(C(=O)c4ccccc4)cc3)c2C(N)=O)C1,"inconclusive: 31.6 µM [inhibitor, single point]",
C/C=C1\COC(C(=O)NCCOCCO)(C(F)(F)F)C=C1C=C1CCCCC1 (configuration not stated),active: 12.6 µM,
O=C(NCc1ccc(F)cc1)c1ccc2c(Cl)c3c(nc2c1)CCCC3,"inconclusive: 17.8 µM [inhibitor, partial curve, poor fit]",
Cc1cc(C=O)c(C)n1-c1sc2c(c1C(=O)O)CCCC2,"inconclusive: 6.31 µM [inhibitor, single point]",

Structure (SMILES),Potency,"activity, negative = inhibition"
CC1CN(C(=O)COC(=O)c2ccc(N)c([N+](=O)[O-])c2)CC(C)O1 (configuration not stated),,inactive: 3.7%
CC(NC(=O)/C(=C\c1ccco1)NC(=O)c1ccco1)C(=O)O (configuration not stated),"inconclusive: 35.5 µM [inhibitor, single point]",
CCn1c(C(=O)NC(C)c2ccc3c(c2)OCCO3)cc2sccc21 (configuration not stated),"inconclusive: 35.5 µM [inhibitor, single point]",
Cc1c(C(=O)NCCC2=CCCCC2)sc2ncnc(N3CCCCC3C)c12 (configuration not stated),"inconclusive: 35.5 µM [inhibitor, single point]",
CCC(=O)N(CCC(c1ccccc1)c1ccco1)Cc1cccs1 (configuration not stated),"inconclusive: 15.8 µM [inhibitor, single point]",
CC(=O)Nc1ccc(NC(=O)CSc2ncc(C(=O)Nc3ccc(Cl)cc3)c(=O)n2C)cc1,,inactive: -18.4%
c1ccc2c(N3CCOCC3)nc(N3CCOCC3)nc2c1,,inactive: -1.81%
CCCCNC(=O)c1onc(CSc2cccc(OC)c2)c1C(=O)NCCCC,"inconclusive: 10 µM [inhibitor, partial curve, poor fit]",
O=C1CN(c2nc(-c3cccnc3)nc3sc4c(c23)CCCC4)CCN1,"inconclusive: 35.5 µM [inhibitor, partial curve, poor fit]",
COc1cc(/C=C/C(=O)Nc2ccc(S(=O)(=O)Nc3ncccn3)cc2)ccc1OCC#N,,inactive: 10.9%
O=C1C=C(c2ccc(Oc3ccccc3)cc2)C[C@@H](c2ccc3c(c2)OCO3)C1,"inconclusive: 5.62 µM [inhibitor, single point]",
COc1ccc(-c2cn(CCC(=O)O)c(C)n2)cc1,"inconclusive: 11.2 µM [inhibitor, single point]",
O=C(NCC(c1cccnc1)N1CCN(c2ccccc2F)CC1)c1cccc(Cl)c1 (configuration not stated),,inactive: 1.49%
Cc1ccc(C)c(NC(=O)c2ccc3c(O)c(S(=O)(=O)c4ccc(Cl)cc4)c(=O)[nH]c3c2)c1,,inactive: -26.6%
CCc1cc(Cn2nc(-c3ccccc3)cc2C(=O)NCc2cccc(C(F)(F)F)c2)on1,"inconclusive: 35.5 µM [inhibitor, single point]",
Cc1ccccc1-c1nc(CS(=O)(=O)CC(=O)N(C)C2CCCCC2)c(C)o1,,inactive: -18.5%
O=C(Nc1ccc(CN2CCOCC2)cc1)c1ccc(Cl)cc1Cl,"inconclusive: 10 µM [inhibitor, partial curve, poor fit]",
Cc1cc2c(cc1S(=O)(=O)NCc1ccccc1Cl)OCCN2C,"inconclusive: 6.31 µM [inhibitor, partial curve]",
CCN(CC)S(=O)(=O)c1ccc2oc(Nc3ccc4c(c3)OCCO4)nc2c1,,inactive: -12.4%
Fc1ccc2c(c1)C1C=CCC1C(c1cc3c(cc1Br)OCO3)N2 (configuration not stated),"inconclusive: 35.5 µM [inhibitor, single point]",
CCOc1cc(CNC(=O)Cn2c(=O)c3cccn3c3ccc(F)cc32)cc(OCC)c1OCC,"inconclusive: 0.794 µM [inhibitor, partial curve]",
Cc1ccc(OCc2nc(C#N)c(N3CCN(Cc4ccccc4)CC3)o2)cc1,,inactive: -6.78%
CC(C)c1ccc(NC(=O)C2CCN(S(=O)(=O)c3cccc4nonc34)CC2)cc1,,inactive: -6.47%

Structure (SMILES),Potency,"activity, negative = inhibition"
CCN(Cc1ccccc1)c1cc2c(c3c1ccn3C)C1CCC2O1 (configuration not stated),"inconclusive: 25.1 µM [inhibitor, single point]",
COc1cc(OC)cc(C(=O)NCC(=O)Nc2ccc(-c3ccccc3)cc2)c1,"inconclusive: 15.8 µM [inhibitor, single point]",
CCN(CC)S(=O)(=O)c1cccc(C(=O)N[C@H](C(=O)Nc2nc3ccccc3s2)C(C)C)c1,"inconclusive: 25.1 µM [inhibitor, single point]",
Cc1ccc(N2C(=O)CSC23C(=O)N(Cc2ccccc2F)c2ccccc23)cc1F (configuration not stated),"inconclusive: 22.4 µM [inhibitor, single point]",
CCC(CO)Oc1cc(NCc2ccccc2C(F)(F)F)c2ncn(C(C)C)c2c1 (configuration not stated),"inconclusive: 14.1 µM [inhibitor, partial curve]",
NC(=O)c1cc([N+](=O)[O-])ccc1NCc1ccc(O)cc1,"inconclusive: 25.1 µM [inhibitor, partial curve, poor fit]",
CC1(C)C2CCC1(CS(=O)(=O)N1CCN(c3ccc(F)cc3)CC1)C(=O)C2 (configuration not stated),,inactive: 2.34%
Cc1cccc(C(=O)N2CCc3cc(CNC(=O)COc4ccc(Cl)cc4)ccc32)c1,,inactive: -3.43%
Cc1ccc(S(=O)(=O)N2CCN(C)CC2)c(C)c1N(C)S(=O)(=O)c1ccc(Cl)cc1,,inactive: 24%
COc1c(C)cc(Br)cc1C(=O)Nc1ccc(-c2nc3ncccc3o2)cc1,,inactive: 5.93%
Cc1cc(N)n(-c2ccc(Cl)cc2)n1,"inconclusive: 1.58 µM [inhibitor, full curve, poor fit]",
CCOc1ccc(NC(=O)Cn2c(=O)n(-c3cccc(Cl)c3)c(=O)c3c2c2cc(C)ccc2n3C)cc1,,inactive: -0.924%
Cc1ccc(Sc2c(CO)c(-c3ccccc3)nn2C)cc1,,inactive: 17.3%
CCc1cc(C(=O)N(C)CC(=O)Nc2c(Cl)cccc2Cl)sc1C,,inactive: 0.873%
COc1cc(NC(=O)c2ccc3oc(=O)c(S(=O)(=O)c4ccccc4)cc3c2)cc(OC)c1,"inconclusive: 2.82 µM [inhibitor, partial curve, poor fit]",
CCSc1nnc(-c2ccc(S(=O)(=O)NCc3cccs3)cc2)o1,"inconclusive: 0.316 µM [inhibitor, full curve, poor fit]",
COCCN(C(=O)CSc1nc2ccccc2c(=O)n1C(C)COC)c1c(N)n(Cc2ccccc2)c(=O)[nH]c1=O (configuration not stated),,inactive: -19.7%
COC(=O)/C(=N/Nc1ccc(C)cc1)N1CCCc2ccccc21,,inactive: -14.5%
C=CCOc1c(Br)cc(/C=N/O)cc1OCC,"inconclusive: 12.6 µM [inhibitor, partial curve]",
CCCC(C(=O)Nc1cc(S(=O)(=O)N2CCOCC2)ccc1OC)c1ccccc1 (configuration not stated),,inactive: -9.94%
COc1ccccc1C(=O)NNC(=O)c1nn(Cc2ccccc2)c(=O)c2ccccc12,"inconclusive: 14.1 µM [inhibitor, partial curve, poor fit]",
